In the RNAGym collection of RNA variant scans (doi:10.7554/elife.90254):
Read counts are not given, so values of variants with three or more changes are uncertain.

B1: LINE1-mini (parent)
chain: GGCAGAGCUCAACACAGCGUGGCAAAGUGGCUGUGGCUAGACUGCC

Variants of: B1
Assay: self-cleavage, relative activity (ratio to wild type); higher = more cleavage; in vitro, sequencing; the parent is a self-cleaving ribozyme

Row | Variant | self-cleavage
1 | C3U G5U G29U U38A | 0.51
2 | G19A G33A C45A C46A | 0.03
3 | C15A A26C C31A G35C C37A | 0.16
4 | A24C G27C C31A G44U | 0.01
5 | C3U G5A C42U | 0.11
6 | A11G C18G U32A G36A | 0
7 | A4C U34C C45A | 0.01
8 | A4G C13U G40C | 0.2
9 | A14C C15A A25U A26C U43A | 0.11
10 | G19A A26C G29C U34C A41C C42U | 0.07
11 | G2C C23U G30U C46A | 0.05
12 | C3U A16U C18U G19A U20A G22A A26C | 0.03
13 | G30A U32C G40A C42U | 0.03
14 | A16C C23U U38C C45U | 0.08
15 | A11G G21U U38C | 0.02
16 | C3G A4C G7C C13U G44U | 0.13
17 | U32G G36C A39U C42G | 0.03
18 | A14C C23U U43C | 0.1
19 | A12C C18G U20C G35A A41G | 0.02
20 | G7U C10G G17A U28C G35U | 0.01
21 | G1A C10A U32A | 0.06
22 | G5U C15G G22A G44A | 0.03
23 | G17U G21U G27U C37U | 0.04
24 | A11U A12G C13A G19A G29A G36A C37U | 0.02

Row | Variant | self-cleavage
25 | G1C U9A G29C | 0
26 | A11C G35C A41U | 0.01
27 | G22U G40U U43G | 0.05
28 | G1U G7C C13U G19C C37A | 0.02
29 | C8G C18A G19C | 0.06
30 | G1A G17A U32A | 0.06
31 | G1C A12C C37G | 0
32 | C3U G21A U38G G44C | 0.05
33 | G1U G5U C8A A26G | 0.08
34 | C10A A16G A24G A39U A41U | 0.04
35 | C15A A16C C31U C37G | 0
36 | G7C C8A C13U U32A | 0.08
37 | C8U U9C U20A C42G | 0
38 | G7C U9A U38A | 0.04
39 | C8U C15A C23A G33U U38G C42G | 0.02
40 | C8G G19C A24C C31U | 0.03
41 | C10U C31U A39C | 0.03
42 | C10A G19U G36U | 0
43 | A14U C18U C23G G33U A41U | 0.11
44 | C10A C15U G27A G29C | 0.46
45 | C18U G33U U38C A39G | 0.19
46 | G2C C13A G30U | 0.03
47 | G5U A16G C42U | 0
48 | A12G C13U A14C | 0.03

Row | Variant | self-cleavage
49 | U9A C10A G35U | 0.01
50 | U32A G36A C45G | 0.09
51 | A4U G7A C13A A14C G17A | 0.09
52 | C31G C37A C45U | 0
53 | G22U U32A U38A | 0.11
54 | G7U A25G G44A | 0.15
55 | G1U C13A G21A C45A | 0.1
56 | G27C G29C A41C G44A | 0.07
57 | G2C G21C C42U G44A | 0.26
58 | U9A C13G G30A U43A C46U | 0.28
59 | G21A A25G G40A C42G | 0.04
60 | G2U A4U C8G A16C G27U A39C C46U | 0
61 | G5C G17U C18A G44U | 0.03
62 | G2U G5A G40U | 0.02
63 | C8A C10A A12U U28C C45A | 0.02
64 | G7C C8G G40U | 0.35
65 | A11G G21A C31A U32C | 0.01
66 | C13G G22U U28A | 0.1
67 | C18U G27A U34A | 0.38
68 | G2C A4C C23A G44C C46U | 0.21
69 | A16U G29C G44A C45A | 0.06
70 | G7C C18A C37U C45G | 0.05
71 | A6C C10A A14G G17U | 0.16
72 | G5U U9G G40U | 0.02

Row | Variant | self-cleavage
73 | G1U C10A C13U A39C | 0.01
74 | G1U G7U G44U | 0.05
75 | C8U C31A U34C G40C C46A | 0.1
76 | A14U C15U G36U | 0.07
77 | C8A G17U A26U C31A | 0.25
78 | G5U C31G U43G | 0
79 | A25U C37A A39U | 0.11
80 | C10A A12C G19U A24U G29A G40A | 0.01
81 | A4C C15U G29C A39C C45U | 0.14
82 | G7U U20G A39U | 0.03
83 | G19U G27C G29U G44C | 0.15
84 | C8U C18G A25G | 0.13
85 | G1C U34G C42G C45G | 0.01
86 | C18G G21U C23U G30U G33A | 0.04
87 | A12U G29U C45A | 0.04
88 | U9G U20C G27A | 0.19
89 | G1C C10U A16G G36C | 0
90 | G27C G30A G44A C46A | 0.05
91 | C10A A14G A16G C42A | 0.01
92 | G2U G35C C37U | 0.01
93 | G29C G40A A41G | 0.06
94 | G17A G19A G27C | 0.23
95 | U9A C42G G44C | 0.02
96 | C8A C10A C18A G29C U34C | 0.02

Row | Variant | self-cleavage
97 | G2A C13U A16U C45U | 0.2
98 | G5A A6C G36A C42G U43A | 0.06
99 | C18U G35A G40U | 0.07
100 | A11C G29A G33A U43C C45U | 0.03
101 | A4C U20A G30U G44U | 0.01
102 | A16U C18U U32C G40A G44A | 0.04
103 | C3G C15G G29U | 0.19
104 | G1U U9C U34A | 0.07
105 | G1U C18A G35U G36A | 0.04
106 | G1U A4G G17U G19A A24C G27U U28G G40C | 0.01
107 | C10G A12U A39G | 0.02
108 | C3U G21U U28C | 0.04
109 | A16C G22A U28A | 0.28
110 | G1U C8A U32G C42U | 0.02
111 | C3G G22A G40A U43C | 0.03
112 | C31A U34G G40A | 0.02
113 | U20A G21C C37A | 0.02
114 | G7U G22C C31G G44A | 0.15
115 | A6G G21U U32C | 0.05
116 | C15U A16U G27U | 0.14
117 | A11G G17C U20A C37A | 0.01
118 | G1A G17U G21C U32G G40C | 0.04
119 | C13G C18A G27A A41U | 0.23
120 | G21U C23U U32A | 0.19

Row | Variant | self-cleavage
121 | G7U C8A A11C U38C | 0
122 | C3A G19C U32G C42U C45A | 0.07
123 | G1C A6C G19A U32C | 0.02
124 | U9C C23A A26G G35U | 0.01
125 | U34C G36U G44U | 0.13
126 | C3G G7C U32G C42G | 0.01
127 | C18A A39C G40U C46G | 0.02
128 | A6G A12C A41U | 0.01
129 | C3U A4G A16U | 0.02
130 | G5U A14C C37A U43A | 0.16
131 | C8A C13G A25C A26G | 0.25
132 | A11U U34C C37G C46U | 0.01
133 | G1C G22A U32A G35U U38C A41C | 0.01
134 | C3A C8A C13G U34A C45U | 2.29
135 | U28C G36C U38A G40C | 0.19
136 | A12C C18G G27U G35A | 0.01
137 | G2C A6U U28C U34G | 0.05
138 | C8U G17U G29U | 0.53
139 | A16C G17A U34A | 0.02
140 | C3A C10U A25G G40U A41G C42G | 0.04
141 | A6C A26G C42G U43G | 0.02
142 | C3G A4G C23A | 0.08
143 | C10U A24U G44C | 0.04
144 | G7U C13U A14U A41C | 0.16

Row | Variant | self-cleavage
145 | A6G C18G C23G | 0.07
146 | C18U C45U C46A | 0.39
147 | G1C A24U A25G U38G C45A | 0.02
148 | C15A G17U U28G G29A U38C | 0.02
149 | C10G G40A U43G | 0.01
150 | A12G U28G G36U | 0.03
151 | G5U C10G C15A G35C U38A | 0
152 | U20G G33U U43A | 0.02
153 | G1A C13A G33C C45U | 0.02
154 | C3G C23U G30C C42U | 1.21
155 | A4U A24U U32A C42A | 0.03
156 | C13G A16C C37U | 0.07
157 | C15A G17A G27C C31A U38A C42A G44A | 0
158 | A4C C18A C23U U28A G33C | 0.15
159 | G2A A6C U34C | 0.31
160 | G1C G5A U9C A24C C37U G40U | 0.02
161 | C3U G7A U32A C37U | 0.14
162 | A16U C37U G44U | 0.03
163 | C10A C23A C42A | 0.02
164 | G7U A25C G36A | 0.28
165 | A4G A11G A41U C42A G44U | 0
166 | G2C A11C G19U U28C G33C C37G G44A | 0.01
167 | G21U A26U A39C | 0.73
